From publication PMC9911399, “Two distinct binding modes provide the RNA-binding protein RbFox with extraordinary sequence specificity”
Where a chain is given by its changes, count along the chain named. This is one part of the list.

T1: RBFOX1 RRM RbFoxmut (Fox-RRM*) (Homo sapiens, UniProt Q9NWB1 109-208, R118D;E147R;N151S;E152T)
T1 sequence: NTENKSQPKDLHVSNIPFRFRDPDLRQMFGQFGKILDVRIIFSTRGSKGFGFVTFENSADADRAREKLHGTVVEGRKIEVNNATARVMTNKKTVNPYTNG

B1: GUCACAA (DNA:RNA)
RNA: GGGAGACCGGAAUUCAGAUUGUCCGUCACAAUUAAAUCCCGUCGUAGCCACCA
DNA 1: CAATCTGAATTCCGGTCTCCC
DNA 2: TGGTGGCTACGACGGGATT
B2: AGAGCUA (DNA:RNA)
RNA: B1 RNA with G25A, U26G, C27A, A28G, A30U
DNA 1: CAATCTGAATTCCGGTCTCCC
DNA 2: TGGTGGCTACGACGGGATT
B3: AGAAGCC (DNA:RNA)
RNA: B1 RNA with G25A, U26G, C27A, C29G, A30C, A31C
DNA 1: CAATCTGAATTCCGGTCTCCC
DNA 2: TGGTGGCTACGACGGGATT
B4: GUGCGAG (DNA:RNA)
RNA: B1 RNA with C27G, A28C, C29G, A31G
DNA 1: CAATCTGAATTCCGGTCTCCC
DNA 2: TGGTGGCTACGACGGGATT
B5: CCAGUAC (DNA:RNA)
RNA: B1 RNA with G25C, U26C, C27A, A28G, C29U, A31C
DNA 1: CAATCTGAATTCCGGTCTCCC
DNA 2: TGGTGGCTACGACGGGATT
B6: CUGAAAC (DNA:RNA)
RNA: B1 RNA with G25C, C27G, C29A, A31C
DNA 1: CAATCTGAATTCCGGTCTCCC
DNA 2: TGGTGGCTACGACGGGATT
B7: ACAUCAA (DNA:RNA)
RNA: B1 RNA with G25A, U26C, C27A, A28U
DNA 1: CAATCTGAATTCCGGTCTCCC
DNA 2: TGGTGGCTACGACGGGATT
B8: CCCGUUA (DNA:RNA)
RNA: B1 RNA with G25C, U26C, A28G, C29U, A30U
DNA 1: CAATCTGAATTCCGGTCTCCC
DNA 2: TGGTGGCTACGACGGGATT
B9: GGCCAUA (DNA:RNA)
RNA: B1 RNA with U26G, A28C, C29A, A30U
DNA 1: CAATCTGAATTCCGGTCTCCC
DNA 2: TGGTGGCTACGACGGGATT
B10: AAGGAAA (DNA:RNA)
RNA: B1 RNA with G25A, U26A, C27G, A28G, C29A
DNA 1: CAATCTGAATTCCGGTCTCCC
DNA 2: TGGTGGCTACGACGGGATT
B11: UAAGCUG (DNA:RNA)
RNA: B1 RNA with G25U, U26A, C27A, A28G, A30U, A31G
DNA 1: CAATCTGAATTCCGGTCTCCC
DNA 2: TGGTGGCTACGACGGGATT
B12: ACGAACA (DNA:RNA)
RNA: B1 RNA with G25A, U26C, C27G, C29A, A30C
DNA 1: CAATCTGAATTCCGGTCTCCC
DNA 2: TGGTGGCTACGACGGGATT
B13: AAGAGGA (DNA:RNA)
RNA: B1 RNA with G25A, U26A, C27G, C29G, A30G
DNA 1: CAATCTGAATTCCGGTCTCCC
DNA 2: TGGTGGCTACGACGGGATT
B14: GUAGUUA (DNA:RNA)
RNA: B1 RNA with C27A, A28G, C29U, A30U
DNA 1: CAATCTGAATTCCGGTCTCCC
DNA 2: TGGTGGCTACGACGGGATT
B15: ACACUAC (DNA:RNA)
RNA: B1 RNA with G25A, U26C, C27A, A28C, C29U, A31C
DNA 1: CAATCTGAATTCCGGTCTCCC
DNA 2: TGGTGGCTACGACGGGATT
B16: UCCAUGA (DNA:RNA)
RNA: B1 RNA with G25U, U26C, C29U, A30G
DNA 1: CAATCTGAATTCCGGTCTCCC
DNA 2: TGGTGGCTACGACGGGATT
B17: CACUCCU (DNA:RNA)
RNA: B1 RNA with G25C, U26A, A28U, A30C, A31U
DNA 1: CAATCTGAATTCCGGTCTCCC
DNA 2: TGGTGGCTACGACGGGATT
B18: GACGCGU (DNA:RNA)
RNA: B1 RNA with U26A, A28G, A30G, A31U
DNA 1: CAATCTGAATTCCGGTCTCCC
DNA 2: TGGTGGCTACGACGGGATT
B19: UCCCUCG (DNA:RNA)
RNA: B1 RNA with G25U, U26C, A28C, C29U, A30C, A31G
DNA 1: CAATCTGAATTCCGGTCTCCC
DNA 2: TGGTGGCTACGACGGGATT
B20: GAUUGUU (DNA:RNA)
RNA: B1 RNA with U26A, C27U, A28U, C29G, A30U, A31U
DNA 1: CAATCTGAATTCCGGTCTCCC
DNA 2: TGGTGGCTACGACGGGATT

These binders were tested against T1, RBFOX1 RRM RbFoxmut (Fox-RRM*) (assay: EMSA; HiTS-Eq, 1 nM pool, 10 min; buffer printed only for the single-RNA assays: 10 mM Tris pH 7.5, 150 mM NaCl, 3.4 mM EDTA, 0.001% NP-40, 30 C). Conditions: tags: His6 N-terminal (pET28a); label: 5' 32P.
Outline: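 Purified wild-type or mutant RbFox RRM at increasing concentrations was equilibrated with 1 nM of 5′-radiolabelled RNA carrying 7 randomized nucleotides for 10 min in 50 µL. Unbound RNA was separated by 8% native PAGE and sequenced. Relative association constants came from read-count changes of each RNA species compared with the control reaction, normalised to the cognate motif.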

Row | Binder | binding signal
1 | B1 | 0.0827 KA relative to UGCAUGU
2 | B2 | 0.132 KA relative to UGCAUGU
3 | B3 | 0.066 KA relative to UGCAUGU
4 | B4 | 0.154 KA relative to UGCAUGU
5 | B5 | 0.117 KA relative to UGCAUGU
6 | B6 | 0.0747 KA relative to UGCAUGU
7 | B7 | 0.0935 KA relative to UGCAUGU
8 | B8 | 0.0711 KA relative to UGCAUGU
9 | B9 | 0.0669 KA relative to UGCAUGU
10 | B10 | 0.0644 KA relative to UGCAUGU
11 | B11 | 0.0766 KA relative to UGCAUGU
12 | B12 | 0.0834 KA relative to UGCAUGU
13 | B13 | 0.0647 KA relative to UGCAUGU
14 | B14 | 0.141 KA relative to UGCAUGU
15 | B15 | 0.0855 KA relative to UGCAUGU
16 | B16 | 0.11 KA relative to UGCAUGU
17 | B17 | 0.0697 KA relative to UGCAUGU
18 | B18 | 0.105 KA relative to UGCAUGU
19 | B19 | 0.133 KA relative to UGCAUGU
20 | B20 | 0.179 KA relative to UGCAUGU
